# Test results as given in paper PMC6919601, “Identification of Plasmodium dipeptidyl aminopeptidase allosteric inhibitors by high throughput screening” (PLoS ONE, 2019).
# “And” between values parts separate entries of the source, which are not always exact repeats. Equal values may be shown once. Screen size: about 110,000 compounds; about 230 (0.21%) showed an effect of 50% or more. Some of the results follow.
# Target: DPAP1 (Plasmodium falciparum, UniProt Q8IIJ9)
# Test: primary screen, percent inhibition; read by cleavage of a fluorogenic dipeptide substrate; higher = more effect of the substance
# Design: species or system P. falciparum D10 trophozoite lysates; single well
# 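Also: 30 min substrate incubation versus DMSO and 10 µM JCP410 controls.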
# Sequence of DPAP1 (Q8IIJ9 whole entry, looked up): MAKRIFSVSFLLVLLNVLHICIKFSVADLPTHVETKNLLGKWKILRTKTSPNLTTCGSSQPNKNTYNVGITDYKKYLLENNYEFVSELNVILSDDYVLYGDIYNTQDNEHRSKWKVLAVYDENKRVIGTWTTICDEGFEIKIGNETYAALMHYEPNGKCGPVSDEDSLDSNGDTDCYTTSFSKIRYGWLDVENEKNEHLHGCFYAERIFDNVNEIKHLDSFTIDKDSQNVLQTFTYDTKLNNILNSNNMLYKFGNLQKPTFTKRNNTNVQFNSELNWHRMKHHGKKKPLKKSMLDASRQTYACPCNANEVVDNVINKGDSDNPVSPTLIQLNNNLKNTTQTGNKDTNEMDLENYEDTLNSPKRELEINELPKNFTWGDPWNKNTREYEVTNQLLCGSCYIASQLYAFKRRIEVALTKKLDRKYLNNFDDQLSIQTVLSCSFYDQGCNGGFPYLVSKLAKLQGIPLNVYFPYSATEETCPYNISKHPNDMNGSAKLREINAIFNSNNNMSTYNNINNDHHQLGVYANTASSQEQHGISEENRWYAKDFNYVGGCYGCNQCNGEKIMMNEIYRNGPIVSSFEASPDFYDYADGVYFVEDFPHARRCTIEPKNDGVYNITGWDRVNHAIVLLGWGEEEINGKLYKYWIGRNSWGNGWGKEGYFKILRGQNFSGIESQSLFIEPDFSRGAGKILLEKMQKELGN
row,Structure (SMILES),% Inhibition @ 10 uM
1,Cc1cc2nc3n(c2cc1C)CCCN3,-1.32%
2,CCOc1ccc(-c2cc(NC(=O)c3ccc(Br)o3)c(C(=O)OC)s2)cc1,-3.96%
3,CC(NC(=O)CCn1nc(-c2ccccc2)c2ccccc2c1=O)c1ccccc1 (stereo not shown),-4.84%
4,CCOc1cc2c(cc1OCC)C(c1cc(OC)c(O)c(OC)c1)NCC2 (stereo not shown),-2.67%
5,Oc1cccc(-c2nc(O)c3c(n2)Oc2ccccc2C3)c1,-2.84%
6,Cn1c(NC(=O)c2cc(-c3ccc4c(c3)OCO4)nc3ccccc23)cc(=O)n(C)c1=O,-6.58%
7,O=C(O)C1CCCCC1C(=O)NCC1CCCO1 (stereo not shown),-2.66%
8,CCCC(=O)NCc1cn2ccsc2n1,7.12%
9,NC(=O)c1c(NC(=O)CCC2CCCCC2)sc2c1CCCC2,0.431%
10,COc1cccc(N(CC(=O)NC2CCCCC2)S(=O)(=O)c2ccccc2)c1,-9.2%
11,Cc1ccc(CC(=O)NCc2nc(-c3ccc(Cl)cc3)no2)cc1,-4.82%
12,CCC(C)NC(=O)Cn1nc(C)c2c(C)n(-c3ccccc3)nc2c1=O (stereo not shown),-11.3%
13,Cn1c(=O)c2c(-c3ccc(C(C)(C)C)cc3)n(C3CCCC3)cc2n(C)c1=O,-1.35%
14,COc1ccc(CCNC(=O)c2cnn3c(C(F)F)cc(-c4ccccc4)nc23)cc1OC,-1.18%
15,COc1ccc(CCNC(=O)CN(C)S(=O)(=O)c2cccs2)cc1OC,-6.57%
16,N#CCNC(=O)[C@H](CS(=O)(=O)Cc1ccccc1)NC(=O)c1ccco1,-6.78%
17,CC(C)(C)n1c(-c2ccc(S(=O)(=O)N3CCCC3)cc2)cs/c1=N\c1ccccc1,-7.09%
18,CN(c1cccc(NC(=O)CN2C(=O)c3ccccc3S2(=O)=O)c1)S(C)(=O)=O,5.69%
19,Cc1cc(C)cc(C(=O)c2ccccc2C(=O)O)c1,-0.771%
20,CCCCN(CC)C(=O)c1cc2cc3cc(OC)ccc3nc2s1,-1.55%
21,OCCNc1ncnc2c1c(-c1ccccc1)cn2-c1cccc(C(F)(F)F)c1,7.92%
22,Cc1cccc(OCC(=O)Nc2cccc3cccnc23)c1,5.15%
23,O=C(c1cccc(C(=O)N2CCN(c3ccccc3F)CC2)c1)N1CCN(c2ccccc2F)CC1,-2.48%
24,CCSc1ncnc2c(C#N)c3n(c12)CCCCC3,-2.42%
25,COc1cccc(-c2nc(CS(=O)(=O)CC(=O)NC3CCCc4ccccc43)c(C)o2)c1 (stereo not shown),-7.53%

row,Structure (SMILES),% Inhibition @ 10 uM
1,Cc1cc(C)n(C2CC(=O)N(c3cc(Cl)cc(Cl)c3)C2=O)n1 (stereo not shown),3.35%
2,CCc1ccccc1-n1nnc(-c2nsc(NC(=O)c3ccccc3)n2)c1C,0.573%
3,CCOC(=O)c1sc(NC(=O)c2cc(-c3cc(OC)ccc3OC)on2)c(C(=O)OCC)c1C,-6.45%
4,Cc1cc(C)c2nc(O)c(O)nc2c1,-0.711%
5,COc1ccccc1-c1nnc(SCC(=O)N2CCC(C)CC2)o1,0.738%
6,CC(CNC(=O)Cn1ncc2c3ccccc3n(Cc3ccccc3F)c2c1=O)c1ccccc1 (stereo not shown),-7.1%
7,CN(C(=O)Cn1nc(C(F)(F)F)c2c1CCCC2)c1ccccc1,4.83%
8,CCc1nnc2c(NC(C)c3ccccc3)nc3ccccc3n12 (stereo not shown),-0.165%
9,COc1ccc(C(=O)C[n+]2ccc3ccccc3c2)cc1OC,-4.61%
10,CCOc1ccccc1OC(CCN1CCN(C)CC1)c1ccccc1 (stereo not shown),3.91%
11,COc1ccc(-n2cnc3cc(NCc4ccco4)ccc32)cc1,-5.34%
12,CCOc1ccc(NCC(=O)c2ccc(C)cc2)cc1,46.4%
13,CN(CC(=O)N1CCN(C2CCCCC2)CC1)S(=O)(=O)c1cccc2nsnc12,0.102%
14,CCOCCCNC(=O)c1ccc(Cn2c(=O)[nH]c3ccsc3c2=O)cc1,-4.86%
15,COCCCNCc1c(C(=O)O)n(Cc2ccccc2C)c2cc(OC)ccc12,8.17%
16,O=C(Nc1cccc(Cl)c1)c1ccc(-c2ccccc2)cc1,-1.98%
17,Cc1cc(NC(=O)C2CC(c3ccc(F)cc3)=NO2)n(-c2ccccc2)n1 (stereo not shown),-3.94%
18,O=C(Cc1ccccc1)NCC1COc2ccccc2O1 (stereo not shown),-2.29%
19,CC1(C(=O)Nc2nccs2)Cc2ccccc2C(=O)O1 (stereo not shown),-6.09%
20,CC(=O)CC(=O)Nc1ccc(F)c(F)c1,-2.03%
21,CCOC(=O)c1sc(NC(=O)c2ccc(C)cc2)c(C(=O)OCC)c1C,-2.42%
22,O=S(=O)(c1ccc(-n2cccn2)cc1)N1CCOCC1,-5%
23,O=C(c1ccccc1F)N1CCN(C2CCCCC2)CC1,-1.6%
24,CC(=O)c1ccc(N2COc3ccc4ccccc4c3C2)cc1,-4.16%
25,CCOC(=O)c1c(S(=O)(=O)NCC(C)c2ccccc2)c(C)n(C)c1C (stereo not shown),2.35%

row,Structure (SMILES),% Inhibition @ 10 uM
1,CCC(C)NC(=O)CSc1nc2c(sc3ccccc32)c(=O)n1Cc1cccnc1 (stereo not shown),7.11%
2,CCCOc1ccc(CNC(=O)C2CCCN(c3nn4c(=O)cc(C)nc4s3)C2)cc1 (stereo not shown),-5.63%
3,O=C1C2C(c3ccc(F)cc3)OC3(C(=O)c4ccccc4C3=O)C2C(=O)N1Cc1ccccc1 (stereo not shown),-3.04%
4,COc1cccc(CNc2nc3c(S(=O)(=O)c4ccccc4)nnn3c3ccc(Cl)cc23)c1,-6.68%
5,COc1ccc(NC(=O)C2CC2c2ccc(Cl)cc2)c(C)c1 (stereo not shown),2.08%
6,CCCNC(=O)C(C)N(c1ccc(OC)cc1)S(C)(=O)=O (stereo not shown),-5.35%
7,COc1ccc(-n2nnnc2C2CCN(S(=O)(=O)c3ccc4c(c3)OCCO4)CC2)cc1,-3.49%
8,Cc1cccc(C)c1NC(=O)COc1ccc(Cl)cc1,4.63%
9,Cc1cc2c(c(=O)o1)C(c1ccc(C(F)(F)F)cc1)C(C#N)=C(N)O2 (stereo not shown),1.96%
10,COc1ccc(CC2CCOC2=O)cc1 (stereo not shown),3.25%
11,CCOC(=O)c1nnn(-c2nonc2N)c1CSc1ccccn1,14.6%
12,CC[C@H](NC(=O)[C@H](Cc1c(F)cccc1F)NC(=O)c1cc(-c2ccccc2)c(-c2ccccc2)s1)C(=O)c1nc2ccccc2o1,4.33%
13,CN1CCCC(COC(c2ccccc2)c2ccccc2)C1 (stereo not shown),3.62%
14,CCOc1ccc(C2=CC(c3cc(OC)c(OC)c(OC)c3)n3nnnc3N2)cc1 (stereo not shown),1.73%
15,C=CCN(Cc1ccc(OCC)c(OC)c1)C(=O)Nc1cccc(Cl)c1,-4.49%
16,CCc1ccc(-c2nc(CSCC(=O)NCc3ccc4c(c3)OCO4)c(C)o2)cc1,-1.05%
17,Cc1ccc(CNC(=O)CCn2c(=O)[nH]c3ccsc3c2=O)cc1,-7.44%
18,Cc1ccc(-n2nc(C)c3c(C)cc(=O)oc32)cc1Cl,3.65%
19,CC1(C)CC(=O)C2=C(C1)N(c1ccccc1)C(=O)C2(NC(=O)c1ccccc1)C(F)(F)F (stereo not shown),-6.64%
20,Cc1nc(C)c(-c2csc(Nc3ccc(O)cc3)n2)s1,-4.3% and -7.57%
21,CCC(Sc1nc(N)cc(O)n1)C(=O)Nc1cccc2ccccc12 (stereo not shown),2.36%
22,N#CCNC(=O)C1(NC(=O)c2ccc(N3CCOCC3)cc2)C[C@H]2CC[C@@H]1C2 (stereo partly shown),-6.46%
23,CCO/C(O)=C1\C(C)=NC2=C(C(=O)CCC2)C1c1ccc(OC)c(Br)c1 (stereo not shown),2.45%
24,Cc1nn(CCCC(=O)N2CCN(C(=O)c3ccco3)CC2)c(=O)c2c1sc1ccccc12,1.91%
25,COC(=O)C1=C(N)Oc2cc(C)n(CCc3ccc(OC)c(OC)c3)c(=O)c2C1c1cccnc1 (stereo not shown),-1.11%

row,Structure (SMILES),% Inhibition @ 10 uM
1,O=C(O)c1ccc(CNC(=O)c2ccc3c(c2)C(=O)N(Cc2cccnc2)C3=O)cc1,-5.51%
2,N#CC1=C2SCN(CCc3ccccc3)CN2C(=O)CC1c1cccs1 (stereo not shown),42.6%
3,CCOc1ccc(CC(=O)Nc2cccc(Cl)c2C)cc1OCC,-4.02%
4,COCCCNC(=O)c1ccc(Cn2c(SCc3ccc(F)cc3)nc3ccncc32)cc1,-1.92%
5,COc1ccc(C(=O)Nc2nccs2)cc1S(=O)(=O)N1CCOCC1,-0.995%
6,O=C1CC(N2CCN(c3ccccc3)CC2)C(=O)N1CCc1ccccc1 (stereo not shown),6.35%
7,CC(=O)Nc1ccccc1C(=O)Nc1ccccc1,-2.44%
8,CCOc1ccc(N2C(=O)CC(N(C)Cc3ccccc3)C2=O)cc1 (stereo not shown),1.08%
9,Cc1cccc(OCC(=O)Nc2ccccc2C(F)(F)F)c1,-12.2%
10,O=C(CNS(=O)(=O)c1ccc(C(=O)N2CCOCC2)cc1)N1CCOCC1,3.87%
11,Cc1nnc(N2CCC(C(N)=O)CC2)c2c1nnn2Cc1ccccc1Cl,6.34%
12,CC12CCC(C(=O)O)(c3nc4ccc5ncccc5c4nc31)C2(C)C (stereo not shown),-2.91%
13,CCCOC(=O)C1C2c3ccccc3C(c3ccccc32)C1C(=O)O (stereo not shown),-0.415%
14,Cc1ccc(NC(=O)c2cccc(F)c2)c(NC(=O)c2cccc(F)c2)c1,0.331%
15,CC(C)C(NS(=O)(=O)c1cccs1)C(=O)NCc1ccc2c(c1)OCO2 (stereo not shown),-1.96%
16,COc1ccc(N2C(=O)C3CCC(C)CC3C2=O)cc1 (stereo not shown),2.51%
17,Cc1ccnc(NS(=O)(=O)c2ccc(NC(=O)c3ccccc3Cl)cc2)n1,-5.85%
18,CC1=C(C(=O)Nc2ccc(F)cc2F)C(c2ccccc2C)C2=C(O)CCCC2=N1 (stereo not shown),-5.01%
19,COc1ccc(NC(=O)CN(c2ccc(F)cc2)S(=O)(=O)c2ccccc2)cc1OC,-4.01%
20,COc1ccc(C(=O)n2nc(C)cc2C)cc1Br,-4.93%
21,Cc1ccc(C)c(OCC(=O)Nc2nc(-c3ccccc3)cs2)c1C,5.23%
22,CCc1[nH]nc2c1C(c1ccc(OC(C)C)cc1)C(C#N)=C(N)O2 (stereo not shown),-2.16%
